Experimental data from the supplement of paper PMC10126150.
Values marked as one replicate rest on one cluster of the flow cell; about a third of the high ones do not repeat.

These sequences were tested on ATP (assay: switch fluorescence ratio, 500 uM ATP over buffer (Cy3 cluster intensity, sum of 5 cycles each) (fold (ratio)); higher = stronger signal-on switching upon ATP binding; sequences stand for … in TCGTCGGCAGCGTCAGATGTGTATAAGAGACAGTTTTTTTTTTTTTTTTTTTTTTTTT…TC). Settings: aptamer strand: ATP DNA aptamer (quencher-CACCTGGGGGAGTATTGCGGAGGAAGG + anchor), 100 nM annealed; ATP concentration: 500 uM; one replicate.
Method in brief: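 The fluorescence ratio divides summed target-cycle Cy3 intensity by summed buffer-cycle Cy3 intensity for each cluster and is averaged per switch-domain sequence. Cy3-labelled switching-strand clusters on a modified Illumina MiSeq flow-cell were annealed to 100 nM quencher-labelled ATP aptamer, then imaged in selection buffer and again after 15 min with 500 uM ATP at 22 °C. Five such cycles were run, with NaOH stripping and re-annealing between them, and clusters outside 100-1000 RFU were excluded.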
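Also: ATP exposure 15 min at 22 °C before imaging.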

| Sequence | switch fluorescence ratio |
| --- | --- |
| GCACAGCGCA | 1.05 |
| GCACAGGGAC | 1.16 |
| GCACATTTAC | 1.31 |
| GCACATTTTA | 0.966 |
| GCACCACTTC | 0.978 |
| GCACCATCAT | 1.01 |
| GCACCCAGCT | 1.03 |
| GCACCCCAGC | 1.13 |
| GCACCCCCAA | 1.54 |
| GCACCCGAGC | 1.07 |
| GCACCGCGTT | 1.08 |
| GCACCTGTTT | 1.02 |
| GCACCTTTTA | 0.989 |
| GCACGAACGG | 1.36 |
| GCACGCACTG | 1.69 |
| GCACGCAGT | 1.01 |
| GCACGCCGTT | 0.99 |
| GCACGGGAGA | 1.03 |
| GCACGGTGTC | 1.07 |
| GCACGTACAA | 1.7 |
| GCACGTATAC | 2.3 |
| GCACGTTTCC | 1.05 |
| GCACTACCGG | 1.06 |
| GCACTATTAC | 1.35 |
| GCACTCCAGC | 1.04 |

| Sequence | switch fluorescence ratio |
| --- | --- |
| GCACTCCCGC | 1.47 |
| GCACTCTAGT | 1 |
| GCACTTTAAT | 0.983 |
| GCACTTTGTG | 1 |
| GCACTTTTAA | 1.02 |
| GCAGAATGAT | 1 |
| GCAGACGAGG | 1.01 |
| GCAGACTGAG | 0.998 |
| GCAGATAACC | 1.02 |
| GCAGATATGC | 1.06 |
| GCAGATCATT | 0.969 |
| GCAGATGCTT | 1.02 |
| GCAGCAGCCA | 1.02 |
| GCAGCCACA | 1.06 |
| GCAGCCCATG | 1.01 |
| GCAGCGCCGT | 0.995 |
| GCAGCGGCGA | 1.06 |
| GCAGCTGCGG | 0.992 |
| GCAGCTTCAG | 0.995 |
| GCAGGAGCAG | 1.05 |
| GCAGGAGTTC | 1 |
| GCAGGATGGC | 1.1 |
| GCAGGATGTT | 0.98 |
| GCAGGCCTAG | 1.04 |
| GCAGGGAATC | 0.994 |

| Sequence | switch fluorescence ratio |
| --- | --- |
| GCAGGGGATC | 1.02 |
| GCAGGTATAC | 1.76 |
| GCAGGTATCG | 0.977 |
| GCAGTAACCC | 1.19 |
| GCAGTACCTT | 1.2 |
| GCAGTATAGG | 1 |
| GCAGTCCTAA | 1.04 |
| GCAGTCGGTA | 1.05 |
| GCAGTTCTCG | 1.07 |
| GCAGTTGTTG | 0.998 |
| GCAGTTTATG | 0.998 |
| GCAGTTTGCG | 0.931 |
| GCATAAACGA | 1.17 |
| GCATACCTAT | 1.04 |
| GCATACCTGA | 1.06 |
| GCATATATAG | 0.997 |
| GCATATATCA | 0.982 |
| GCATCAGCCA | 1.02 |
| GCATCATAGG | 1.04 |
| GCATCATGGA | 1.04 |
| GCATCCAATT | 1.03 |
| GCATCCCCT | 1.13 |
| GCATCCCTGG | 1.28 |
| GCATCCGTCA | 1.07 |
| GCATCGAAAA | 1.02 |

| Sequence | switch fluorescence ratio |
| --- | --- |
| GCATCTCAAG | 1.06 |
| GCATGACGTG | 1.01 |
| GCATGAGTCA | 1.01 |
| GCATGCCAGG | 1.02 |
| GCATGCCATG | 1.02 |
| GCATGCCGAC | 0.993 |
| GCATGCTTCG | 1 |
| GCATGGAGCC | 1.05 |
| GCATGTAGGC | 1.05 |
| GCATGTCTGA | 1.03 |
| GCATTACGGG | 1.36 |
| GCATTAGCT | 1.01 |
| GCATTATGCA | 0.975 |
| GCATTATTTT | 1.02 |
| GCATTGCGGT | 1.02 |
| GCATTGTTGA | 1.01 |
| GCATTTTGTC | 1 |
| GCATTTTTGT | 0.989 |
| GCCAAATATT | 1.01 |
| GCCAAATGCG | 0.995 |
| GCCAACTAGG | 1.01 |
| GCCAACTGCA | 1.03 |
| GCCAATTTCC | 1.06 |
| GCCACAAGTG | 1.1 |
| GCCACCACAT | 1.02 |
